Binding signal data for 172 sequences are collected here from paper PMC10668032.

The other results are listed elsewhere or left out. At the low end of the ranking the order means little.

The target of this test is SIX1 homeodomain (reference allele) (UniProt Q15475). The test can be described thus: universal protein binding microarray. The conditions noted are these: Universal all-10-mer PBM (8x60K, AMADID 030236), 300 nM GST-tagged protein, Alexa Fluor 488 anti-GST; buffer, salt, pH and temperature not stated; high values mean tight binding; most listed sequences are background and not binding sites; double strand, one strand shown.
In the case of ATCTCACC, the binding signal amounted to 0.335 E-score.

Consider ATCGCTAG, for which the binding signal turned out to be 0.279 E-score.

For the sequence AAACATTA, the binding signal was -0.356 E-score.

Take CTACCCCA: the binding signal was -0.00649 E-score.

As for CTTTTTCC, the binding signal is -0.162 E-score.

With GAATCCAA, the binding signal was -0.0142 E-score.

On to CCCAGGCG, for which the binding signal was 0.0247 E-score.

Consider AGCCAAGC, for which the binding signal is -0.238 E-score.

For AGTCTTCA, the binding signal is -0.385 E-score.

In the case of CACGGGCC, the binding signal was -0.142 E-score.

CCGGGTAC: the binding signal came to 0.148 E-score.

As to AGGTAGTA, the binding signal amounted to 0.0393 E-score.

As to CTGGAGAA, the binding signal was -0.223 E-score.

Regarding CAGCGTCG, the binding signal is -0.23 E-score.

Consider TAGTGGGA, for which the binding signal was determined as 0.0867 E-score.

For the sequence GTACAGAC, the binding signal is -0.23 E-score.

Turning to CTGACGCA, the binding signal is -0.254 E-score.

Regarding GTGAGACA, the binding signal was determined as 0.158 E-score.

For the sequence GGCTTAGA, the binding signal is -0.149 E-score.

With TCCAGGAA, the binding signal came out at 0.011 E-score.

Regarding GCTATTTA, the binding signal stood at 0.0705 E-score.

Take ACTAGGGC: the binding signal is -0.192 E-score.

As to GACGGGCC, the binding signal is -0.0352 E-score.

In the case of CGGGAAAA, the binding signal was -0.218 E-score.

Take CATATCAA: the binding signal was 0.452 E-score.

Turning to AATTTCAC, the binding signal is -0.295 E-score.

CGTGGTCC: the binding signal stood at 0.0814 E-score.

Consider GATACGCA, for which the binding signal stood at 0.421 E-score.

With ACGCAGCC, the binding signal is -0.136 E-score.

AACGAGGC: the binding signal was -0.111 E-score.

GCTTGTAC: the binding signal was -0.101 E-score.

Consider ATCGGCTG, for which the binding signal came out at 0.167 E-score.

Regarding CAGTAGCG, the binding signal is -0.0242 E-score.

Turning to ATCGTGGA, the binding signal came to 0.116 E-score.

For GAGGCATC, the binding signal stood at 0.00106 E-score.

Consider ATGCGAGG, for which the binding signal was -0.0248 E-score.

As for GGATGGAA, the binding signal is 0.0567 E-score.

On to AATCACAG, for which the binding signal was -0.0314 E-score.

On to GGATACCA, for which the binding signal was found to be 0.426 E-score.

As for AAACTCGT, the binding signal was -0.263 E-score.

On to AAGCAGCC, for which the binding signal is -0.224 E-score.

Consider CGGTACTC, for which the binding signal was determined as 0.176 E-score.

TTAGTGAA: the binding signal was -0.0467 E-score.

Consider CAAGCGCG, for which the binding signal is -0.145 E-score.

Take GCGACTTA: the binding signal was -0.274 E-score.

ATAGGGAT: the binding signal is 0.395 E-score.

On to CAGCCCGA, for which the binding signal was -0.118 E-score.

With ACGGGATC, the binding signal amounted to 0.342 E-score.

As for GCTCTTTA, the binding signal is -0.174 E-score.

ACGACAAC: the binding signal is -0.148 E-score.

On to AGACGTGC, for which the binding signal is -0.075 E-score.

For the sequence TGATGGCA, the binding signal is -0.255 E-score.

Turning to CTGCCAGA, the binding signal came out at 0.0078 E-score.

With CTGTGGGA, the binding signal is -0.0232 E-score.

Take ATTTCACG: the binding signal is -0.103 E-score.

Take GCCCTACA: the binding signal is -0.126 E-score.

For the sequence AGGTCTTG, the binding signal was -0.198 E-score.

Regarding CACATGGG, the binding signal was -0.111 E-score.

Consider AAATGCTA, for which the binding signal was 0.114 E-score.

With AAAAGCGA, the binding signal was -0.0436 E-score.

Regarding TCGAAAGA, the binding signal is -0.0936 E-score.

With ACCCAGAC, the binding signal turned out to be 0.117 E-score.

On to CTGAGCCA, for which the binding signal was -0.00654 E-score.

Consider CCTCTGGA, for which the binding signal was -0.00647 E-score.

AAACATGT: the binding signal was -0.276 E-score.

For ACGAGTCT, the binding signal was -0.0531 E-score.

With CAGAACGA, the binding signal came out at 0.0772 E-score.

For the sequence GTGCCGCA, the binding signal was -0.174 E-score.

Turning to AGCAAGCA, the binding signal was -0.304 E-score.

As for ATTACTGC, the binding signal was found to be 0.0655 E-score.

As to GAACCTAC, the binding signal was -0.192 E-score.

AAGCTTCC: the binding signal is -0.196 E-score.

Turning to AGCAGGCA, the binding signal is -0.122 E-score.

In the case of AGGACTGG, the binding signal is -0.12 E-score.

Turning to AGCTACAC, the binding signal was found to be 0.0973 E-score.

As for ACTCAACA, the binding signal is -0.133 E-score.

As for ACCAATAT, the binding signal was 0.199 E-score.

On to CCTACTAC, for which the binding signal was determined as 0.0198 E-score.

ATTATGCA: the binding signal worked out at 0.0315 E-score.

Turning to CATCGGGC, the binding signal is 0.0787 E-score.

Turning to CGGAGTTC, the binding signal is -0.0974 E-score.

With AGAGTCTA, the binding signal is -0.192 E-score.

ACCTTGAC: the binding signal was -0.0392 E-score.

On to ACCGGGTG, for which the binding signal amounted to 0.109 E-score.

For AGAGCATC, the binding signal was 0.0182 E-score.

Regarding ACAACGCC, the binding signal is -0.225 E-score.

Turning to AAAGGCGG, the binding signal is -0.16 E-score.

Take AGCTGTCC: the binding signal is -0.383 E-score.

In the case of GCCTCCAC, the binding signal was -0.379 E-score.

With GAGAAACC, the binding signal is -0.0361 E-score.

As for ACGGAGAA, the binding signal is -0.0771 E-score.

For the sequence CCCCTCAC, the binding signal stood at 0.00562 E-score.

As for ATTTCTTC, the binding signal was -0.171 E-score.

GCAGTATA: the binding signal worked out at 0.205 E-score.

As for CAGACAGG, the binding signal was -0.0912 E-score.

With CATGGAGC, the binding signal is -0.283 E-score.

In the case of AGCCATGG, the binding signal came to 0.0179 E-score.

For the sequence CTCACCCC, the binding signal stood at 0.0156 E-score.

With ATGAGTCA, the binding signal stood at 0.00105 E-score.

As for ACGGTCCT, the binding signal was -0.266 E-score.

As for AGCACAAT, the binding signal is -0.0533 E-score.

Regarding ACAGAGGG, the binding signal is 0.0677 E-score.

On to CACGGTAG, for which the binding signal turned out to be 0.0356 E-score.

On to ATCCCACA, for which the binding signal turned out to be 0.23 E-score.

Take CAGACCCG: the binding signal was -0.0239 E-score.

Consider TCGGACGA, for which the binding signal was -0.0313 E-score.

GATGGCCA: the binding signal is -0.297 E-score.

With AGGGACTG, the binding signal is -0.204 E-score.

Take AGCGACCG: the binding signal stood at 0.00574 E-score.

GAACCCCC: the binding signal is -0.0838 E-score.

ACTCGGCG: the binding signal amounted to 0.0111 E-score.

Consider GTCGCCCA, for which the binding signal is -0.227 E-score.

For the sequence CAGTGTCC, the binding signal is -0.0519 E-score.

With ATAGGTTG, the binding signal is -0.105 E-score.

In the case of TCGGTAAA, the binding signal was -0.0484 E-score.

For CCACGGTA, the binding signal was determined as 0.0502 E-score.

Turning to CAACCTAC, the binding signal is -0.0687 E-score.

Regarding GCTGCGGA, the binding signal came to 3.5e-05 E-score.

On to AGGACGCG, for which the binding signal was -0.0249 E-score.

As for TACTTACA, the binding signal was -0.0544 E-score.

Turning to AGTTTGAT, the binding signal is 0.0308 E-score.

Regarding GCAAGATA, the binding signal was found to be 0.17 E-score.

As for TCTGAAAA, the binding signal is -0.024 E-score.

With GCCGGCGC, the binding signal is -0.195 E-score.

Turning to CACAGTGA, the binding signal was -0.0378 E-score.

In the case of AGAACGCG, the binding signal is -0.185 E-score.

Regarding CAGCTGAC, the binding signal is -0.194 E-score.

In the case of TATTCGGA, the binding signal is 0.0335 E-score.

As to GCCTGGTA, the binding signal was found to be 0.0811 E-score.

As for AAACGTCC, the binding signal was -0.334 E-score.

As to ATGGCGGA, the binding signal worked out at 0.104 E-score.

Consider AATGGTGT, for which the binding signal is 0.287 E-score.

On to AGATCTAC, for which the binding signal worked out at 0.183 E-score.

For ACTTGGTG, the binding signal is 0.0751 E-score.

CTCGGTCA: the binding signal was -0.0232 E-score.

Turning to GGGCCCCC, the binding signal is -0.31 E-score.

On to TACCCGCA, for which the binding signal came out at 0.161 E-score.

For the sequence AGGGCGCA, the binding signal is -0.29 E-score.

As for ACCGTTAC, the binding signal is -0.0724 E-score.

Turning to AAACGCAT, the binding signal is -0.122 E-score.

Turning to AAACGGGG, the binding signal was -0.0435 E-score.

On to AAACTGTT, for which the binding signal was -0.232 E-score.

For GCGTAGAC, the binding signal is -0.0743 E-score.

Turning to CAGGAATA, the binding signal was -0.0839 E-score.

AACGTTAC: the binding signal is -0.19 E-score.

On to ACTTTGAC, for which the binding signal is -0.201 E-score.

Turning to CTGATTCC, the binding signal is -0.1 E-score.

As for ACCGGTCA, the binding signal stood at 0.069 E-score.

Turning to GAATCGCC, the binding signal is -0.0722 E-score.

For the sequence CCGATTCA, the binding signal is -0.0745 E-score.

Regarding CTCCTAAA, the binding signal was -0.0767 E-score.

As to CCACATCC, the binding signal amounted to 0.142 E-score.

Consider GATGCTGA, for which the binding signal is -0.0596 E-score.

As for ACCTTTCC, the binding signal is -0.114 E-score.

Consider GCTGGCGA, for which the binding signal is -0.0132 E-score.

For ATATAGCG, the binding signal is 0.164 E-score.

On to ATATTATA, for which the binding signal stood at 0.333 E-score.

Take ACGAGACA: the binding signal is 0.0509 E-score.

As for TGAGAGCA, the binding signal is 0.00541 E-score.

Regarding ACTACTGG, the binding signal is -0.105 E-score.

As for CACTGGAA, the binding signal was 0.0659 E-score.

In the case of CCACTATA, the binding signal was 0.143 E-score.

Consider CGGGGGTA, for which the binding signal was 0.301 E-score.

As for AGCATCGC, the binding signal was -0.2 E-score.

Regarding AGGAGTTA, the binding signal is -0.0945 E-score.

As for CAGGTAGC, the binding signal came out at 0.0424 E-score.

For the sequence GAAACGAA, the binding signal is -0.164 E-score.

As for ACGCCGCC, the binding signal is -0.153 E-score.

Take GAGGAGCC: the binding signal turned out to be 0.0159 E-score.

Take CCTAATCC: the binding signal is 0.121 E-score.

In the case of GACAAGTC, the binding signal was -0.344 E-score.

As for GTCGACTA, the binding signal is 0.0583 E-score.
